# Assay results from paper PMC12820563, “FoxP3 forms a head-to-head dimer in vivo and stabilizes its multimerization on adjacent microsatellites”.
# The other results are listed elsewhere or left out.
# Molecular target: T1, MBP-FoxP1dN (Mus musculus, UniProt P58462 326-579)
# T1 sequence: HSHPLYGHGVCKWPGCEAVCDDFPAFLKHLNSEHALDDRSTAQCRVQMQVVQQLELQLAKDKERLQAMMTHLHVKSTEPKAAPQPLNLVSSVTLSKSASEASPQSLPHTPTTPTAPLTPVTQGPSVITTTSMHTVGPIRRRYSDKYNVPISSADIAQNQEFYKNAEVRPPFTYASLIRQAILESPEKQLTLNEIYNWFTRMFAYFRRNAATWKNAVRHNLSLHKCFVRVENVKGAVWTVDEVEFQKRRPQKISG
# Assay: PD-seq (MBP pull-down with sequencing); 20 mM Tris-HCl pH 7.5, 100 mM NaCl, 1.5 mM MgCl2, 0.4 uM protein, 0.1 uM dsDNA library, 30 min, room temperature, amylose pull-down; high values mean tight binding
# Details: protein: recombinant; tags: His6-MBP; chain copies: 2; dsDNA, one strand shown
# How it was run: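 A degenerate double-stranded DNA library, filled in with Klenow, was added at 0.1 µM to 0.4 µM His6-MBP-tagged mouse FoxP3 or FoxP1 fragment lacking the N-terminus, expressed in E. coli. Incubation lasted 30 min at room temperature in Tris pH 7.5 buffer with NaCl and MgCl2, after which complexes were collected on amylose resin, washed three times, digested with proteinase K to free the DNA, barcoded by PCR and sequenced by Illumina. Binding is the pooled-replicate reads-per-million enrichment of pull-down over input.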
row,Sequence,binding signal
1,GATGATTGTTCTCCCAGCTGATGAATTGTCTCTTTCGAGTAAACAAATTTTCCTAATCTTTCTGTTCAAGCGCCATCTAC,1.1 RPM ratio (pull-down/input)
2,GATGATTGTTCTCCCAGCTGATGAATTACAAGAGTCGAGTAAACAAATTTTCCTAATCTTTCTGTTCAAGCGCCATCTAC,1.13 RPM ratio (pull-down/input)
3,GATGATTGTTCTCCCAGCTGATGAATTGATACGCTCGAGTAAACAAATTTTCCTAATCTTTCTGTTCAAGCGCCATCTAC,1.1 RPM ratio (pull-down/input)
4,GATGATTGTTCTCCCAGCTGATGAATTCCGACCTTCGAGTAAACAAATTTTCCTAATCTTTCTGTTCAAGCGCCATCTAC,0.754 RPM ratio (pull-down/input)
5,GATGATTGTTCTCCCAGCTGATGAATTAGCATCCTCGAGTAAACAAATTTTCCTAATCTTTCTGTTCAAGCGCCATCTAC,1.21 RPM ratio (pull-down/input)
6,GATGATTGTTCTCCCAGCTGATGAATTTTGTTGATCGAGTAAACAAATTTTCCTAATCTTTCTGTTCAAGCGCCATCTAC,2.8 RPM ratio (pull-down/input)
7,GATGATTGTTCTCCCAGCTGATGAATTTAATCAATCGAGTAAACAAATTTTCCTAATCTTTCTGTTCAAGCGCCATCTAC,1.04 RPM ratio (pull-down/input)
8,GATGATTGTTCTCCCAGCTGATGAATTGTGCTTTTCGAGTAAACAAATTTTCCTAATCTTTCTGTTCAAGCGCCATCTAC,1.3 RPM ratio (pull-down/input)
9,GATGATTGTTCTCCCAGCTGATGAATTCAACGCTTCGAGTAAACAAATTTTCCTAATCTTTCTGTTCAAGCGCCATCTAC,0.91 RPM ratio (pull-down/input)
10,GATGATTGTTCTCCCAGCTGATGAATTTCCGGCCTCGAGTAAACAAATTTTCCTAATCTTTCTGTTCAAGCGCCATCTAC,0.772 RPM ratio (pull-down/input)
11,GATGATTGTTCTCCCAGCTGATGAATTATCTCTGTCGAGTAAACAAATTTTCCTAATCTTTCTGTTCAAGCGCCATCTAC,0.846 RPM ratio (pull-down/input)
12,GATGATTGTTCTCCCAGCTGATGAATTGCAACGCTCGAGTAAACAAATTTTCCTAATCTTTCTGTTCAAGCGCCATCTAC,1.2 RPM ratio (pull-down/input)
13,GATGATTGTTCTCCCAGCTGATGAATTTAATTAGTCGAGTAAACAAATTTTCCTAATCTTTCTGTTCAAGCGCCATCTAC,0.96 RPM ratio (pull-down/input)
14,GATGATTGTTCTCCCAGCTGATGAATTTCGGAATTCGAGTAAACAAATTTTCCTAATCTTTCTGTTCAAGCGCCATCTAC,0.898 RPM ratio (pull-down/input)
15,GATGATTGTTCTCCCAGCTGATGAATTAAATCAGTCGAGTAAACAAATTTTCCTAATCTTTCTGTTCAAGCGCCATCTAC,0.978 RPM ratio (pull-down/input)
16,GATGATTGTTCTCCCAGCTGATGAATTCTTTTCATCGAGTAAACAAATTTTCCTAATCTTTCTGTTCAAGCGCCATCTAC,1.07 RPM ratio (pull-down/input)
17,GATGATTGTTCTCCCAGCTGATGAATTCATGGTGTCGAGTAAACAAATTTTCCTAATCTTTCTGTTCAAGCGCCATCTAC,0.976 RPM ratio (pull-down/input)
18,GATGATTGTTCTCCCAGCTGATGAATTTAAAGTATCGAGTAAACAAATTTTCCTAATCTTTCTGTTCAAGCGCCATCTAC,1.07 RPM ratio (pull-down/input)
19,GATGATTGTTCTCCCAGCTGATGAATTTAAGTCTTCGAGTAAACAAATTTTCCTAATCTTTCTGTTCAAGCGCCATCTAC,0.922 RPM ratio (pull-down/input)
20,GATGATTGTTCTCCCAGCTGATGAATTAAGGTTGTCGAGTAAACAAATTTTCCTAATCTTTCTGTTCAAGCGCCATCTAC,1 RPM ratio (pull-down/input)
21,GATGATTGTTCTCCCAGCTGATGAATTAACGTGATCGAGTAAACAAATTTTCCTAATCTTTCTGTTCAAGCGCCATCTAC,0.878 RPM ratio (pull-down/input)

row,Sequence,binding signal
1,GATGATTGTTCTCCCAGCTGATGAATTTTGAGTTTCGAGTAAACAAATTTTCCTAATCTTTCTGTTCAAGCGCCATCTAC,0.924 RPM ratio (pull-down/input)
2,GATGATTGTTCTCCCAGCTGATGAATTGGTGCTATCGAGTAAACAAATTTTCCTAATCTTTCTGTTCAAGCGCCATCTAC,1.08 RPM ratio (pull-down/input)
3,GATGATTGTTCTCCCAGCTGATGAATTAGGGCTATCGAGTAAACAAATTTTCCTAATCTTTCTGTTCAAGCGCCATCTAC,0.956 RPM ratio (pull-down/input)
4,GATGATTGTTCTCCCAGCTGATGAATTCAATCAGTCGAGTAAACAAATTTTCCTAATCTTTCTGTTCAAGCGCCATCTAC,0.877 RPM ratio (pull-down/input)
5,GATGATTGTTCTCCCAGCTGATGAATTTAAACGCTCGAGTAAACAAATTTTCCTAATCTTTCTGTTCAAGCGCCATCTAC,0.958 RPM ratio (pull-down/input)
6,GATGATTGTTCTCCCAGCTGATGAATTCAGCGGTTCGAGTAAACAAATTTTCCTAATCTTTCTGTTCAAGCGCCATCTAC,0.859 RPM ratio (pull-down/input)
7,GATGATTGTTCTCCCAGCTGATGAATTTCACTGGTCGAGTAAACAAATTTTCCTAATCTTTCTGTTCAAGCGCCATCTAC,0.806 RPM ratio (pull-down/input)
8,GATGATTGTTCTCCCAGCTGATGAATTTGTCATCTCGAGTAAACAAATTTTCCTAATCTTTCTGTTCAAGCGCCATCTAC,1.19 RPM ratio (pull-down/input)
9,GATGATTGTTCTCCCAGCTGATGAATTTCTTCTTTCGAGTAAACAAATTTTCCTAATCTTTCTGTTCAAGCGCCATCTAC,1.01 RPM ratio (pull-down/input)
10,GATGATTGTTCTCCCAGCTGATGAATTCAGGCTATCGAGTAAACAAATTTTCCTAATCTTTCTGTTCAAGCGCCATCTAC,0.847 RPM ratio (pull-down/input)
11,GATGATTGTTCTCCCAGCTGATGAATTCATTCATTCGAGTAAACAAATTTTCCTAATCTTTCTGTTCAAGCGCCATCTAC,0.842 RPM ratio (pull-down/input)
12,GATGATTGTTCTCCCAGCTGATGAATTAGTTCGCTCGAGTAAACAAATTTTCCTAATCTTTCTGTTCAAGCGCCATCTAC,0.858 RPM ratio (pull-down/input)
13,GATGATTGTTCTCCCAGCTGATGAATTGACAACTTCGAGTAAACAAATTTTCCTAATCTTTCTGTTCAAGCGCCATCTAC,1.49 RPM ratio (pull-down/input)
14,GATGATTGTTCTCCCAGCTGATGAATTCGAGCGTTCGAGTAAACAAATTTTCCTAATCTTTCTGTTCAAGCGCCATCTAC,0.878 RPM ratio (pull-down/input)
15,GATGATTGTTCTCCCAGCTGATGAATTTTGTTCGTCGAGTAAACAAATTTTCCTAATCTTTCTGTTCAAGCGCCATCTAC,0.983 RPM ratio (pull-down/input)
16,GATGATTGTTCTCCCAGCTGATGAATTCTCAGTTTCGAGTAAACAAATTTTCCTAATCTTTCTGTTCAAGCGCCATCTAC,0.783 RPM ratio (pull-down/input)
17,GATGATTGTTCTCCCAGCTGATGAATTACACGTGTCGAGTAAACAAATTTTCCTAATCTTTCTGTTCAAGCGCCATCTAC,1.18 RPM ratio (pull-down/input)
18,GATGATTGTTCTCCCAGCTGATGAATTACGGTGGTCGAGTAAACAAATTTTCCTAATCTTTCTGTTCAAGCGCCATCTAC,0.954 RPM ratio (pull-down/input)
19,GATGATTGTTCTCCCAGCTGATGAATTCCTAGGATCGAGTAAACAAATTTTCCTAATCTTTCTGTTCAAGCGCCATCTAC,0.842 RPM ratio (pull-down/input)
20,GATGATTGTTCTCCCAGCTGATGAATTACTCGAGTCGAGTAAACAAATTTTCCTAATCTTTCTGTTCAAGCGCCATCTAC,0.914 RPM ratio (pull-down/input)
21,GATGATTGTTCTCCCAGCTGATGAATTGCCCAAATCGAGTAAACAAATTTTCCTAATCTTTCTGTTCAAGCGCCATCTAC,1.09 RPM ratio (pull-down/input)

row,Sequence,binding signal
1,GATGATTGTTCTCCCAGCTGATGAATTCTCCGCCTCGAGTAAACAAATTTTCCTAATCTTTCTGTTCAAGCGCCATCTAC,0.896 RPM ratio (pull-down/input)
2,GATGATTGTTCTCCCAGCTGATGAATTGTCCACGTCGAGTAAACAAATTTTCCTAATCTTTCTGTTCAAGCGCCATCTAC,0.978 RPM ratio (pull-down/input)
3,GATGATTGTTCTCCCAGCTGATGAATTTATCCTCTCGAGTAAACAAATTTTCCTAATCTTTCTGTTCAAGCGCCATCTAC,0.985 RPM ratio (pull-down/input)
4,GATGATTGTTCTCCCAGCTGATGAATTCGACAGGTCGAGTAAACAAATTTTCCTAATCTTTCTGTTCAAGCGCCATCTAC,0.756 RPM ratio (pull-down/input)
5,GATGATTGTTCTCCCAGCTGATGAATTGGTGGACTCGAGTAAACAAATTTTCCTAATCTTTCTGTTCAAGCGCCATCTAC,0.911 RPM ratio (pull-down/input)
6,GATGATTGTTCTCCCAGCTGATGAATTTATCTGTTCGAGTAAACAAATTTTCCTAATCTTTCTGTTCAAGCGCCATCTAC,0.988 RPM ratio (pull-down/input)
7,GATGATTGTTCTCCCAGCTGATGAATTCGGCCGATCGAGTAAACAAATTTTCCTAATCTTTCTGTTCAAGCGCCATCTAC,0.792 RPM ratio (pull-down/input)
8,GATGATTGTTCTCCCAGCTGATGAATTTGAAATCTCGAGTAAACAAATTTTCCTAATCTTTCTGTTCAAGCGCCATCTAC,0.737 RPM ratio (pull-down/input)
9,GATGATTGTTCTCCCAGCTGATGAATTATCCGATTCGAGTAAACAAATTTTCCTAATCTTTCTGTTCAAGCGCCATCTAC,0.95 RPM ratio (pull-down/input)
10,GATGATTGTTCTCCCAGCTGATGAATTTTACAGCTCGAGTAAACAAATTTTCCTAATCTTTCTGTTCAAGCGCCATCTAC,0.813 RPM ratio (pull-down/input)
11,GATGATTGTTCTCCCAGCTGATGAATTCTCCCATTCGAGTAAACAAATTTTCCTAATCTTTCTGTTCAAGCGCCATCTAC,0.975 RPM ratio (pull-down/input)
12,GATGATTGTTCTCCCAGCTGATGAATTTCCCACTTCGAGTAAACAAATTTTCCTAATCTTTCTGTTCAAGCGCCATCTAC,0.889 RPM ratio (pull-down/input)
13,GATGATTGTTCTCCCAGCTGATGAATTTAGAGGATCGAGTAAACAAATTTTCCTAATCTTTCTGTTCAAGCGCCATCTAC,0.884 RPM ratio (pull-down/input)
14,GATGATTGTTCTCCCAGCTGATGAATTTGTAACTTCGAGTAAACAAATTTTCCTAATCTTTCTGTTCAAGCGCCATCTAC,1.15 RPM ratio (pull-down/input)
15,GATGATTGTTCTCCCAGCTGATGAATTCACACAATCGAGTAAACAAATTTTCCTAATCTTTCTGTTCAAGCGCCATCTAC,1.35 RPM ratio (pull-down/input)
16,GATGATTGTTCTCCCAGCTGATGAATTCTAAGATTCGAGTAAACAAATTTTCCTAATCTTTCTGTTCAAGCGCCATCTAC,0.843 RPM ratio (pull-down/input)
17,GATGATTGTTCTCCCAGCTGATGAATTGTGACCGTCGAGTAAACAAATTTTCCTAATCTTTCTGTTCAAGCGCCATCTAC,0.982 RPM ratio (pull-down/input)
18,GATGATTGTTCTCCCAGCTGATGAATTGTGGTAATCGAGTAAACAAATTTTCCTAATCTTTCTGTTCAAGCGCCATCTAC,1.58 RPM ratio (pull-down/input)
19,GATGATTGTTCTCCCAGCTGATGAATTTTGCGTGTCGAGTAAACAAATTTTCCTAATCTTTCTGTTCAAGCGCCATCTAC,0.967 RPM ratio (pull-down/input)
20,GATGATTGTTCTCCCAGCTGATGAATTACGATTTTCGAGTAAACAAATTTTCCTAATCTTTCTGTTCAAGCGCCATCTAC,1.11 RPM ratio (pull-down/input)
21,GATGATTGTTCTCCCAGCTGATGAATTGGATGTGTCGAGTAAACAAATTTTCCTAATCTTTCTGTTCAAGCGCCATCTAC,0.931 RPM ratio (pull-down/input)
